Assay results: the supplement of paper PMC7125110
Variants at the floor of the assay are shown more often than the library holds them.

B1: glmS ribozyme (parent)
chain: AUAAAAGCGCCAGAACUACAGAAAUGUAGUUGACGAGGAGGAGGUUUAUCGAAUUUUCGGCGGAUGCCUCCAAA

Key:
Conditions in all cases: with glucosamine-6-phosphate
[1] = variants of: B1; assay: self-cleavage kobs at 40 uM GlcN6P; higher = faster cleavage; RNA array
Method in brief: (§1)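 Glucosamine-6-phosphate in HEPES/KCl/Mg(OAc)2 buffer, at 40 μM to 10 mM, was flowed over barcoded ribozyme variants transcribed in situ by E. coli RNA polymerase on sequenced MiSeq chips. Tracking was through a hybridised Cy3 probe at 37 °C. kobs, kcat and KM came from exponential decay fits and weighted Michaelis–Menten fits of normalised per-tile medians.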

[2] = variants of: B1; assay: self-cleavage kobs at 640 uM GlcN6P; higher = faster cleavage; RNA array
Method in brief: as §1

[3] = variants of: B1; assay: self-cleavage kobs at 160 uM GlcN6P; higher = faster cleavage; RNA array
Method in brief: as §1

[4] = variants of: B1; assay: self-cleavage kobs at 2500 uM GlcN6P; higher = faster cleavage; RNA array
Method in brief: as §1

[5] = variants of: B1; assay: self-cleavage kobs at 10000 uM GlcN6P; higher = faster cleavage; RNA array
Method in brief: as §1

AUAAAAGUGCCAGAACUACAGAAAUGUAGUUGACUAGGAGGUGGUUUAUUGAAUUUUCGGCGGAUGCCUCCAAA [C8U G35U A42U C50U]
< 1e-05 s⁻¹: self-cleavage kobs at 40 uM GlcN6P [1]

AUAAAAGUGCCAGAACUACAGAAAUGUAGUUGACGAGGAAGAGGUUUAUCGAAUUUUCGGCGGAUGCCUCCAAA [C8U G40A]
< 1e-05 s⁻¹: self-cleavage kobs at 40 uM GlcN6P [1] | self-cleavage kobs at 640 uM GlcN6P [2] | self-cleavage kobs at 160 uM GlcN6P [3] | self-cleavage kobs at 2500 uM GlcN6P [4] | self-cleavage kobs at 10000 uM GlcN6P [5]

AUAAAAGUGCCAGAACUACAGAAAUGUAGUUGACGAGGAGAUGGUUUAUCGAAUUUUCAGCGGAUGCCUCCAAA [C8U G41A A42U G59A]
< 1e-05 s⁻¹: self-cleavage kobs at 40 uM GlcN6P [1]

AUAAAAGUGCCAGAACUACAGAAAUGUAGUUGACGAGGAGAAGGUUUAUCGAAUUUUCGGCGGGUGCCUCCAAA [C8U G41A A64G]
< 1e-05 s⁻¹: self-cleavage kobs at 40 uM GlcN6P [1] | self-cleavage kobs at 10000 uM GlcN6P [5]

AUAAAAGUGCCAGAACUACAGAAAUGUAGUUGACGAGGAGCAGGUUUAUCGAAUUAUCGGCGGAUGCCUCCAAA [C8U G41C U56A]
< 1e-05 s⁻¹: self-cleavage kobs at 40 uM GlcN6P [1] | self-cleavage kobs at 160 uM GlcN6P [3] | self-cleavage kobs at 10000 uM GlcN6P [5]

AUAAAAGUGCCAGAACUACAGAAAUGUAGUUGACGAGGAGGAGCUUUAUCGAAUUUUCGGCGGAUGCCUCCAAA [C8U G44C]
< 1e-05 s⁻¹: self-cleavage kobs at 40 uM GlcN6P [1] | self-cleavage kobs at 640 uM GlcN6P [2] | self-cleavage kobs at 160 uM GlcN6P [3] | self-cleavage kobs at 2500 uM GlcN6P [4]

AUAAAAGUGCCAGAACUACAGAAAUGUAGUUGACGAGGAGGAGGUUUAUCAAAUUUUCGGCGGAUGCCUCCAAA [C8U G51A]
< 1e-05 s⁻¹: self-cleavage kobs at 40 uM GlcN6P [1] | self-cleavage kobs at 640 uM GlcN6P [2] | self-cleavage kobs at 2500 uM GlcN6P [4] | self-cleavage kobs at 10000 uM GlcN6P [5]

AUAAAAGUGCCAGAACUACAGAAAUGUAGUUGACGAGGAGGAGGUUUAUCGAAUUUUCGCCGGAUGCCUCCAAA [C8U G60C]
< 1e-05 s⁻¹: self-cleavage kobs at 40 uM GlcN6P [1] | self-cleavage kobs at 640 uM GlcN6P [2] | self-cleavage kobs at 160 uM GlcN6P [3] | self-cleavage kobs at 2500 uM GlcN6P [4] | self-cleavage kobs at 10000 uM GlcN6P [5]

AUAAAAGUGCCAGAACUACAGAAAUGUAGUUGACGAGGAGGAGGUUUAUCGAAUUUUCGGCUGAUGCCUCCAAA [C8U G62U]
< 1e-05 s⁻¹: self-cleavage kobs at 40 uM GlcN6P [1] | self-cleavage kobs at 640 uM GlcN6P [2] | self-cleavage kobs at 2500 uM GlcN6P [4]

AUAAAAGUGCCAGAACUACAGAAAUGUAGUUGACGAGGAGGAGGUUUAUCGAAUUUUCGGCGCAUGCCUCCAAA [C8U G63C]
< 1e-05 s⁻¹: self-cleavage kobs at 40 uM GlcN6P [1] | self-cleavage kobs at 640 uM GlcN6P [2] | self-cleavage kobs at 160 uM GlcN6P [3] | self-cleavage kobs at 2500 uM GlcN6P [4] | self-cleavage kobs at 10000 uM GlcN6P [5]

AUAAAAGUGCCAGAACUACAGAAAUGUAGUCGACGAGGAGGAGGUUUAUCGAAUUUUCGGCGGAUGCCUCCAAA [C8U U31C]
< 1e-05 s⁻¹: self-cleavage kobs at 40 uM GlcN6P [1] | self-cleavage kobs at 640 uM GlcN6P [2] | self-cleavage kobs at 160 uM GlcN6P [3] | self-cleavage kobs at 10000 uM GlcN6P [5]

AUAAAAGUGCCAGAACUACAGAAAUGUAGUCGACGAAGAGGAGGUUUAUCGAAUUUUCGGCGGAUGCCUCCAAA [C8U U31C G37A]
< 1e-05 s⁻¹: self-cleavage kobs at 40 uM GlcN6P [1] | self-cleavage kobs at 640 uM GlcN6P [2] | self-cleavage kobs at 10000 uM GlcN6P [5]

AUAAAAGUGCCAGAACUACAGAAAUGUAGUUGACGAGGAGGAGGAUUAUCGAAUUUUCGGCGGAUGCCUCCAAA [C8U U45A]
< 1e-05 s⁻¹: self-cleavage kobs at 40 uM GlcN6P [1] | self-cleavage kobs at 640 uM GlcN6P [2] | self-cleavage kobs at 160 uM GlcN6P [3] | self-cleavage kobs at 2500 uM GlcN6P [4] | self-cleavage kobs at 10000 uM GlcN6P [5]

AUAAAAGUGCCAGAACUACAGAAAUGUAGUUGACGAGGAGGAGGGUUAUCGAAUUUUCGGCGGAUGCCUCCAAA [C8U U45G]
< 1e-05 s⁻¹: self-cleavage kobs at 40 uM GlcN6P [1] | self-cleavage kobs at 640 uM GlcN6P [2] | self-cleavage kobs at 160 uM GlcN6P [3] | self-cleavage kobs at 2500 uM GlcN6P [4]

AUAAAAGUGCCAGAACUACAGAAAUGUAGUUGACGAGGAGGAGGUGUAUCGAAUUUUCGGCGGAUGCCUCCAAA [C8U U46G]
< 1e-05 s⁻¹: self-cleavage kobs at 40 uM GlcN6P [1] | self-cleavage kobs at 640 uM GlcN6P [2] | self-cleavage kobs at 160 uM GlcN6P [3] | self-cleavage kobs at 10000 uM GlcN6P [5]

AUAAAAGUGCCAGAACUACAGAAAUGUAGUUGACGAGGAGGAGGUUUAUCGAACUUUCGGCGGAUGCCUCCAAA [C8U U54C]
< 1e-05 s⁻¹: self-cleavage kobs at 40 uM GlcN6P [1] | self-cleavage kobs at 640 uM GlcN6P [2] | self-cleavage kobs at 2500 uM GlcN6P [4] | self-cleavage kobs at 10000 uM GlcN6P [5]

AUAAAAGUGCCAGAACUACAGAAAUGUAGUUGACGAGGAGGAGGUUUAUCGAAUCUUCGGCGGAUGCCUCCAAA [C8U U55C]
< 1e-05 s⁻¹: self-cleavage kobs at 40 uM GlcN6P [1] | self-cleavage kobs at 640 uM GlcN6P [2] | self-cleavage kobs at 2500 uM GlcN6P [4] | self-cleavage kobs at 10000 uM GlcN6P [5]

AUAAAAGUGCCAGAACUACAGAAAUGUAGUUGACGAGGAGGAGGUUUAUCGAAUUUACGGCGGAUGCCUCCAAA [C8U U57A]
< 1e-05 s⁻¹: self-cleavage kobs at 40 uM GlcN6P [1] | self-cleavage kobs at 160 uM GlcN6P [3] | self-cleavage kobs at 2500 uM GlcN6P [4]

AUAAAAGUGCCAGAACUACAGAAAUGUAGUUGACGAGGAGGAGGUUUAUCGAAUUUUCGGCGGAAGCCUCCAAA [C8U U65A]
< 1e-05 s⁻¹: self-cleavage kobs at 40 uM GlcN6P [1] | self-cleavage kobs at 640 uM GlcN6P [2] | self-cleavage kobs at 160 uM GlcN6P [3] | self-cleavage kobs at 2500 uM GlcN6P [4]

AUAAAAGCACCAGCACUACAGAAAUGUAGUUGACGACUAGGAGGUUUACCGAAUUUUCGGCGGAUGCCACCAAA [G9A A14C G37C G38U U49C U69A]
< 1e-05 s⁻¹: self-cleavage kobs at 40 uM GlcN6P [1]

AUAAAAGCACCAGAACUACAGAAAUGUAGUUGCCGAGGAGGAGGUUUAUCGAAUUUUCGGCGGAUGCCUCCAAA [G9A A33C]
< 1e-05 s⁻¹: self-cleavage kobs at 40 uM GlcN6P [1] | self-cleavage kobs at 640 uM GlcN6P [2] | self-cleavage kobs at 160 uM GlcN6P [3]

AUAAAAGCACCAGAACUACAGAAAUGUAGUUGGCGAGGAGGAGGUUUAUCGAAUUUUCGGCUGAUGCCUCCAAA [G9A A33G G62U]
< 1e-05 s⁻¹: self-cleavage kobs at 40 uM GlcN6P [1] | self-cleavage kobs at 10000 uM GlcN6P [5]
